In all, about 7,900 compounds went through this assay and about 400 (5.1%) showed an effect of 50% or more. The list shows a part of the results.

Parkinson's disease protein 7 (PARK7/DJ1), sequence (Q99497 whole entry, looked up, the tested form may be a part): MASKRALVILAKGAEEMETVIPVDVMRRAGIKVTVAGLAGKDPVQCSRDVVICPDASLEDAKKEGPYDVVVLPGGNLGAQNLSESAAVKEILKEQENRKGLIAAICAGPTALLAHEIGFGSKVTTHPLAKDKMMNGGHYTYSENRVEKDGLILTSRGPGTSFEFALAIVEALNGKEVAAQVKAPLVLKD

This experiment has as its target Parkinson's disease protein 7 (PARK7/DJ1) (human, UniProt Q99497). As to the kind of experiment: primary screen, percent inhibition; read as competition with a fluorescent probe by fluorescence polarization; higher = more effect of the substance. The following applies: 100 µM. The procedure, abridged: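 Covalent fragments at 100 μM final were incubated 2 h with 0.2 μM PARK7, then 20 nM probe JYQ-107 added for a further 2 h. Fluorescence polarization read at 480/520 nm; relative FP loss versus reference controls gave remaining enzyme activity.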
In the case of `N#CC(=Cc1ccccc1OCC1CCCO1)C(N)=O` (centres unmarked), the Inhibition % amounted to 2.51%.

Consider `COc1cc(S(=O)(=O)n2nc(C)cc2C)ccc1Cl`, for which the Inhibition % turned out to be 11.5%.

For `FC(F)(F)c1ccc(S)nn1`, the Inhibition % came out at 25.5%.

Take `Cn1nccc1NS(=O)(=O)c1cccc(S(=O)(=O)F)c1`: the Inhibition % came out at 89.5%.

As to `NC(=O)C=Cc1cccnc1`, the Inhibition % stood at 11.7%.

On to `O=C1NC(c2ccccc2)C12CCOCC2` (centres unmarked), for which the Inhibition % is recorded as 2.64%.

Turning to `C#CC(=O)Nc1ccc(C(=O)O)cc1`, the Inhibition % came to 1.94%.

As to `C=CC(=O)N(C)CC1(C)COC1`, the Inhibition % was 18%.

With `C=CC(=O)NCC1(C)CC(F)(F)C1`, the Inhibition % is recorded as 5.99%.

Turning to `C=CC(=O)Nc1cccc(OC(F)F)c1`, the Inhibition % amounted to 4.3%.

With `C=CC(=O)N1CC(O)(c2cccc3ccccc23)C1`, the Inhibition % is -1.66%.

Take `O=C(CCl)N1CCCC1c1ccc2c(c1)OCCO2` (centres unmarked): the Inhibition % came to 11.4%.

As for `Cc1nc(Cn2c(-c3ccccn3)noc2=O)cs1`, the Inhibition % is listed as -1.76%.

As for `C=CC(=O)N1CCc2c(ncn2-c2ccccc2)C1`, the Inhibition % turned out to be 2.64%.

In the case of `CC1(C)OB(c2ccc3[nH]c(C(F)(F)F)cc3c2)OC1(C)C`, the Inhibition % is 0.184%.

As for `CCCOc1cc(C)c(Cl)cc1S(=O)(=O)n1ccnc1`, the Inhibition % was 9.05%.

Regarding `C=CC(=O)Nc1ccc(F)c(N2CCOCC2)c1`, the Inhibition % is 3.72%.

Take `O=C(CCl)NCc1cccc(N2CCCC2=O)c1`: the Inhibition % was 24.5%.

Turning to `C=CC(=O)N1CCN(C(=O)c2ccccc2OC)CC1`, the Inhibition % worked out at 6.39%.

For the compound `COc1ccc(Sc2nccnc2C#N)cc1`, the Inhibition % came out at 4.71%.

As to `CCn1c(S)nc2ccccc2c1=O`, the Inhibition % stood at 7.71%.

On to `N#Cc1n[nH]c2ccc(Cl)cc12`, for which the Inhibition % amounted to 11%.

For the compound `C=CC(=O)NC1C2Cc3cc(F)ccc3C21` (centres unmarked), the Inhibition % was 11.5%.

With `N#Cc1ncccc1S(N)(=O)=O`, the Inhibition % is recorded as 6.94%.

Regarding `Cc1nc(C(C#N)=Cc2csnn2)sc1C`, the Inhibition % is 3.38%.

Turning to `C=CC(=O)N1Cc2ccc(OC)cc2C1`, the Inhibition % is 4.97%.

Regarding `C=CC(=O)Nc1ccc(Cl)cc1`, the Inhibition % turned out to be 5.59%.

With `CN(C)C(=O)Oc1ccc2c(c1)OCO2`, the Inhibition % is -4.08%.

Take `Cn1nccc1B1OC(C)(C)C(C)(C)O1`: the Inhibition % is 20.6%.

For `CC(C)(C)[C@H]1OCC[C@@H]1CNC(=O)c1c[nH]c(C#N)c1`, the Inhibition % came to 3.68%.

In the case of `C=CC(=O)N1CCN(CCc2ccc(F)cc2)CC1`, the Inhibition % is on record as 8.07%.

As to `N#Cc1ncn(CC(=O)c2ccc3c(c2)CCCC3)n1`, the Inhibition % is given as 9.17%.

On to `O=C(CCl)Nc1cccc2ccccc12`, for which the Inhibition % stood at 18.9%.

For `C=CC(=O)N1CCOCC1c1nnc(C)o1` (centres unmarked), the Inhibition % worked out at 12.4%.

In the case of `Cc1nnc(S)c(C(N)=O)c1C`, the Inhibition % was found to be 21.1%.
